# ± gives the standard deviation. Over roughly 6,600 sequences, “pre-steady-state target cleavage rate” has its median near 0.07; the highest 2% begin near 0.72. The list shows a part of the results, in another mix than the full data.
# System: MIWI (PIWIL1) piRISC loaded with Kctd7 piRNA (30 nt)
# Assay: pre-steady-state target cleavage rate (min^-1); MIWI and MILI are mouse PIWI proteins and EfPiwi is from a freshwater sponge; tags in brackets are library labels; higher = faster piRNA-guided slicing of the target
# Conditions: guide: Kctd7 piRNA 5'p-UGUUAAUCUCUCAGAGAAGGUGACAGUGAU; auxiliary factor: 500 nM mouse GTSF1
# Summary of the method: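 Reactions were run for 0–8 or 0–960 min at 33 °C in HEPES–potassium acetate buffer, combining 1 nM active affinity-purified piRISC with one synthetic guide, […] transcribed, DNA-blocked target RNA library and, in some cases, 500 nM GTSF1 partner protein. Sequencing of uncleaved targets followed, with normalisation to depth and to weakly complementary targets. Three trials were pooled, k3 was capped at 0.0001 min^-1, and the pre-steady-state cleavage rate was taken from a burst-and-steady-state fit.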
# 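Further: 1 nM active piRISC with 0.1 nM target library at 33 °C single turnover.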
row,Sequence,pre-steady-state target cleavage rate
1,UACACUGAUCACCUUCUCUGAGAGAUUAACA,0.638 ± 0.05
2,UAGUGACACACCUUCUCUGAGAGAUUAAGCA,0.296 ± 0.049
3,UAGUGAGUCACCAUCUCUGAGAGAAUAACA,0.213 ± 0.03
4,UAGACUGUCUCCUUCUCAGAGAGAUUAACA,0.278 ± 0.021
5,UAGAGACUCACCUUCUCUGAGAGAUUAAGA,0.187 ± 0.024
6,UAGUGUGUCACGUUCUCUGAGAGAUUAACA,0.561 ± 0.028
7,UAGUGACAGUCCUUCUCUUAGAGAUUAACA,0.0123 ± 0.0049
8,UAGUGACACAGCUUCACUGAGAGAUUAACA,0.0887 ± 0.011
9,UUCACUGUCACCAUCUCUGAGUGAUUAACA,0.0308 ± 0.0054
10,UAGUGACACACCUUCUGUGAGAGAUUAAGA,0.0525 ± 0.012
11,UAGUGACAGUCUUCUCUGAGAGAUUAACA,0.0394 ± 0.0047
12,AUCACUGUCACCUUCUCUCUGAGAUUAACA,0.0402 ± 0.0095
13,UAGUGAGUCACCUACUCUGUGAGAUUAACA,0.161 ± 0.013
14,AUGAGUGUCACCUUCUCUGAGAGAUUAACA,0.706 ± 0.032
15,UAGUGUGUCACCUUCUCUGAGAGUUAAACA,0.208 ± 0.043
16,UUCACUGUCACCAUCUCUGAGAGUUUAACA,0.398 ± 0.06
17,UAGUGACAGUGGAAGAGUCAGUGAUUAACA,< 0.0001
18,UAGUGACAGUCCUUCUCUGAGAGAUUUAACA,0.018 ± 0.0034
19,UAGUGUGUCACGUUCUCUGAGAGUUUAACA,0.165 ± 0.022
20,UAGUGAGUCACCUACUCUGACAGAUUAACA,0.221 ± 0.028
21,UAGUCUGUCACCUUCUCGAGAGAUUAACA,0.0918 ± 0.014
22,UACAGAGUCACCUUCUCUGAGAGAUUAACA,0.476 ± 0.026
23,UAGUGUGUCUCCUUCUCUGACAGAUUAACA,0.386 ± 0.03
24,AUCACUGUGACCUUCUCAGAGAGAUUAACA,0.236 ± 0.012

row,Sequence,pre-steady-state target cleavage rate
1,UAGACUGACACCUACUCUGAGAGAUUAACA,0.521 ± 0.04
2,UAGUGUGUACACCUUCUCUGAGAGAUUAACA,0.569 ± 0.038
3,UAGUGACUCACCUUCUCUGAGAGAUUAGCA,0.293 ± 0.044
4,UAGUGACUCACCUACUCUGAGAGAAUAACA,0.0219 ± 0.0063
5,UAGUGACAGACCUACUCUGAGAGUUUAACA,0.011 ± 0.0036
6,AUCACUGUCACCUUCUCUGACUGAUUAAGA,0.00363 ± 0.0027
7,AUCACUGUCACCAACUCUGAGAGAUUAUGA,0.00999 ± 0.0036
8,UAGUGUGUCUGCUUCUCUGAGAGAUUAUGA,0.0055 ± 0.0027
9,UACACUGUCACCUUCUGUGAGAGAAUAACA,0.249 ± 0.048
10,AUCACUCGUCACCUUCUCUGAGAGAUUAACA,0.747 ± 0.043
11,UAGUGAGUCACCUUCUCUGAGACUUUAACA,0.0587 ± 0.013
12,UAGUGUGUCACCUUCUCUGAGAGAUUACCA,0.208 ± 0.029
13,UAGUGACACACCUUCUCUGAGAGAUAAUGA,0.00749 ± 0.0039
14,UAGUGACACACCUUCUCUGAGAGUUUUACA,0.0381 ± 0.015
15,ACACUGUCACCUUCUCUGAGAGAUUAACA,0.772 ± 0.044
16,UAGUGACAGUGCUUCUCUGAGAGAUUACCA,0.00538 ± 0.0028
17,UUCACUGUCACGUUCUGUGAGAGAUUAACA,0.506 ± 0.028
18,UAGUCUGUCACACUUCUCUGAGAGAUUAACA,0.51 ± 0.023
19,AUCACUGUCACCUUCUCUGUCAGAUUUUGA,0.018 ± 0.0065
20,UAGUGUGUCACCUUCUCUCAGAGAUUUACA,0.0502 ± 0.0088
21,UUGACUGUGACCUUCUCUGAGAGAUUAACA,0.662 ± 0.04
22,UUCACUGUCACCUUCUCUGAGAGAUAUAACA,0.304 ± 0.033
23,UAGUGAGUCUGGUUCUCUGAGAGAUUAACA,0.00515 ± 0.0021
24,UAGUUUGUCACCUUCUCUGAGAGAUUAACA,0.58 ± 0.024

row,Sequence,pre-steady-state target cleavage rate
1,UAGUCUCUCAGCUUCUCUGAGAGAUUAACA,0.00984 ± 0.0037
2,UAGACUCAGACCUUCUCUGAGAGAUUAUGA,0.0101 ± 0.0033
3,UAGUGACAGACCUUCUCUCAGAGAUUUACA,0.0078 ± 0.0039
4,UUCACUCACACCUUCUCUGAGAGAUUUUGA,0.128 ± 0.03
5,UAGACUGUCACCUUCUCUGAGUGAUUAACA,0.0193 ± 0.0028
6,UAGUGACACACCUUCUCUGACAGAUAAACA,0.0421 ± 0.012
7,UAGUGAGUCACCUUGUCUGUGAGAUUAACA,0.111 ± 0.0097
8,AUCACUGUCAGCUUCUCUCAGAGAUUAACA,0.0986 ± 0.0063
9,UAGUGUGUCAACUUCUCUGAGAGAUUAACA,0.546 ± 0.025
10,UACUGUGUCACCUUCUCUGAGAGAUUUUGA,0.0574 ± 0.0094
11,UAGUGUGUCACCAUCUCUGAGAGAUUAUCA,0.198 ± 0.026
12,UAGUGACAGUGGAAGAGACUGAGAUAAAGA,< 0.0001
13,UACACUGUCACCUUCUCUUAGAGAUUAACA,0.345 ± 0.02
14,AUGUGUGUCACCUUCUCUGAGAGAUUAAGA,0.295 ± 0.041
15,UUCACUGUCACCUUCUCUGAGAGAUUUAGA,0.112 ± 0.024
16,UAGUGUGUCACCUUGUCUGAGAGAUUUUGA,0.00982 ± 0.0057
17,UAGUGUGUCACCUUGCUCUGAGAGAUUAACA,0.231 ± 0.04
18,UACACUGUCACCUUCUCUGAGAAGAUUAACA,0.0272 ± 0.0089
19,AUCACUGUCACCUUCUCUGAGUCAUUUUGA,0.0042 ± 0.0032
20,UAGUGACAGUCGCUUCUCUGAGAGAUUAACA,0.462 ± 0.029
21,UACACUGUCACCUUCAGUGAGAGAUUAACA,0.0638 ± 0.013
22,UAGUCUGUCACCUUCUCUGAUGAGAUUAACA,0.00956 ± 0.0041
23,UACACACUCACCUUCUCUGAGAGAUUAACA,0.568 ± 0.044
24,UAGACUGUCUGGUUCUCUGAGAGAUUAUGA,< 0.0001
